Results reported in the supplement of paper PMC3334620.
The full ranking holds about 33,000 sequences; the median of “E-score (-0.5 to 0.5)” is about -0.054, and the highest 2% start at about 0.35. This is one part of the list.

Biological target: T1, Stb5 (UniProt P38699)
T1 sequence: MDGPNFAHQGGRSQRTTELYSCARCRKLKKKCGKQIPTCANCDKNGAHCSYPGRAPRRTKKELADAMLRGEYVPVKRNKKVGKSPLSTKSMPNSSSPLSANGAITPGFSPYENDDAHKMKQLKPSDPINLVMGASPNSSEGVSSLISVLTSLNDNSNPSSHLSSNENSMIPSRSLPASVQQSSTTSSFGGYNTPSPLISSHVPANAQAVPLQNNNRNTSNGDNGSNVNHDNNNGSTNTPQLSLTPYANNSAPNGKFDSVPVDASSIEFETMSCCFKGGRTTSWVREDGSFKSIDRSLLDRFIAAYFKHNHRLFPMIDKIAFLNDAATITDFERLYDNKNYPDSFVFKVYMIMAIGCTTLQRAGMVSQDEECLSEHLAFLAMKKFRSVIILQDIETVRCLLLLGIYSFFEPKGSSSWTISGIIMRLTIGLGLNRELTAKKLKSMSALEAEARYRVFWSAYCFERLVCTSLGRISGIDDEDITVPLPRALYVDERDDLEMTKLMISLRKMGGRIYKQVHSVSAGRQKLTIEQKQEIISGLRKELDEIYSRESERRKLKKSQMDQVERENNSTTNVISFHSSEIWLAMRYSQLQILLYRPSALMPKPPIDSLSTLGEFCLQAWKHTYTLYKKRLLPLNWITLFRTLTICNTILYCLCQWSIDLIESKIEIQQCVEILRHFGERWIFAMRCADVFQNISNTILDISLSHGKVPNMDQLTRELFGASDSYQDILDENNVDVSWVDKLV
Test: PBM E-score (8-mer binding enrichment) (E-score (-0.5 to 0.5)); higher = stronger / more preferred TF binding; most listed sequences are background and not binding sites
Conditions: protein concentration: 200 nM; construct: GST-full length
In short: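 Full-length yeast transcription factors or their DNA-binding domains, GST-tagged and expressed with PURExpress, were applied at about 100-200 nM to universal all-10-mer Agilent arrays. These arrays had been made double-stranded by primer extension on fresh or once-stripped slides. Detection used fluorescent anti-GST, normalisation used masliner, and E-scores for ungapped eight-base words pooled with reverse complements came from the Universal PBM Analysis Suite.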

| Sequence | PBM E-score |
| --- | --- |
| AATGTCGA | -0.17 |
| AGGAGTCA | -0.194 |
| CGACGACA | -0.07 |
| ACCACGGC | 0.0232 |
| CGTTCGAG | -0.0409 |
| AGTTCAGC | -0.299 |
| ATGAAGTA | -0.0605 |
| TAAAAATA | 0.124 |
| CCTCACAA | -0.117 |
| AATCTCGT | -0.0289 |
| GAATATAC | 0.106 |
| CGATTGGA | 0.0362 |
| GTCGTCAA | -0.136 |
| CAAGGACA | -0.26 |
| AACAACAG | -0.158 |
| AATCGACG | -0.145 |
| ATATCTTG | -0.117 |
| GGGCACTA | 0.0684 |
| ACTATAAA | 0.0934 |
| CATAGTCG | -0.0255 |
| CTGGTAGC | -0.218 |
| ACCGGACG | 0.329 |
| AAGAATGC | -0.218 |
| CGTATTGA | -0.013 |
| ACCCTCCG | 0.134 |

| Sequence | PBM E-score |
| --- | --- |
| GTGGTAAC | -0.139 |
| AGCGCTTG | -0.015 |
| ATATGGAA | -0.0664 |
| CGTCAAAA | 0.0912 |
| GGCGGTGA | 0.376 |
| ACCTTTAC | -0.102 |
| ACGGCTAA | -0.0965 |
| GCAGTCGA | -0.0782 |
| TAACTTAA | 0.106 |
| CGCGCCCA | 0.0207 |
| TATCAACA | -0.0751 |
| AACAGTGC | -0.0925 |
| GAGACAAA | 0.0115 |
| CTTAATAA | 0.14 |
| GAAATAAC | 0.216 |
| CACGAGTG | -0.21 |
| ACAGAAAG | -0.00441 |
| AGAGTGTC | -0.0617 |
| CTCAAAGA | -0.152 |
| ATATGCAT | -0.0954 |
| GTATAGTA | -0.00023 |
| AGCACATG | -0.193 |
| CAGGTCCC | -0.0877 |
| GGATGCAC | -0.151 |
| GCCGGCAC | 0.334 |

| Sequence | PBM E-score |
| --- | --- |
| ATTCGAAA | -0.017 |
| AGTTGGTC | -0.156 |
| GGGGCCAC | 0.0261 |
| CAACAGCG | 0.135 |
| CGGAGGAG | 0.0736 |
| AACGCCCT | -0.24 |
| ACGCTCGG | 0.229 |
| CTTAAGTC | 0.0934 |
| GAGGGACC | -0.108 |
| CAAATCGC | 0.00562 |
| AAAACGAT | -0.265 |
| CAAGGAGA | -0.129 |
| ATTATACA | 0.0217 |
| CCGAACCG | 0.23 |
| AGCGACAT | -0.161 |
| CGCAATAA | 0.213 |
| CATAACGA | -0.00123 |
| TAGTGCAA | -0.157 |
| CTTGCGGA | 0.144 |
| ATGTGTGC | -0.0139 |
| ATCTAAGA | -0.138 |
| ACGTAACA | -0.0542 |
| AAGGGAAC | -0.11 |
| ACGGCCGT | 0.226 |
| GGACCGAA | 0.184 |

| Sequence | PBM E-score |
| --- | --- |
| ATGACAGA | -0.202 |
| ATTACAGG | 0.191 |
| ACATATAA | 0.199 |
| AACTACGT | -0.0171 |
| GTTAGCCA | 0.0305 |
| TGATGAAA | -0.29 |
| GCAGGAAA | -0.0516 |
| CGAAGAAC | -0.0324 |
| AATTAGTA | -0.0825 |
| AGTCTCTA | -0.346 |
| CCGGTAGC | 0.195 |
| CTCAGTTA | 0.0258 |
| CTCTCTCC | -0.133 |
| CGGTCGAG | -0.063 |
| GTGCGAGA | -0.195 |
| CTCCCTGC | -0.209 |
| ATTGCACG | 0.00253 |
| ACACCTCG | 0.0552 |
| GAGGACGA | -0.163 |
| TGAGACAA | -0.0999 |
| AAGGCACT | -0.126 |
| ATGCGGTG | 0.283 |
| CCTTGAAA | -0.117 |
| GAACCATA | 0.0655 |
| ATAAGCAA | -0.156 |

| Sequence | PBM E-score |
| --- | --- |
| TGAGTACA | -0.126 |
| CCCTATGA | -0.0317 |
| CCATTGCG | 0.116 |
| TCATTGGA | -0.116 |
| CTCATTAA | -0.134 |
| TACAACTA | -0.155 |
| AGCAGCAC | -0.34 |
| ATGAAACA | -0.0687 |
| CTGTCGTC | -0.199 |
| AGGGGTCG | -0.178 |
| CTGCTGAA | -0.298 |
| GACCAGCC | 0.00138 |
| AACACTAT | -0.0598 |
| AGTGTCAC | -0.0789 |
| AGAGTAAG | -0.182 |
| CCGTGCAA | 0.168 |
| GGATGACC | -0.0273 |
| CTTCAAAA | -0.214 |
| CAGTCAGC | -0.0989 |
| AAAATGGA | 0.00203 |
| GAATCGAA | -0.175 |
| ACTCAATA | -0.108 |
| CATGTACG | -0.0511 |
| GCAATAAC | 0.131 |
| GACCGACA | 0.341 |

| Sequence | PBM E-score |
| --- | --- |
| GCTTTATA | 0.129 |
| AATAGGAC | -0.0226 |
| AATCGTAC | -0.0685 |
| ATAGTATA | 0.0619 |
| CAGCGTTC | -0.0601 |
| AATGTATA | -0.00655 |
| GCATGGAA | 0.139 |
| ACTACTCT | -0.174 |
| GACCGAGC | 0.12 |
| ACTGGACA | -0.0751 |
| ACGTGACA | -0.282 |
| AGAAACCT | -0.00738 |
| ACACCGAA | 0.386 |
| GTCCGTCA | 0.266 |
| AGCGTCTA | -0.14 |
| AAGTGACT | -0.193 |
| CCTGGTGA | -0.138 |
| CAATCTCC | 0.218 |
| AACCCGAC | 0.347 |
| AGCCCAAA | 0.106 |
| GGCGCAAA | 0.177 |
| CCCGCCAA | 0.257 |
| GCCAGAGC | -0.199 |
| CGGGCGGC | 0.308 |
| ACAGCAGT | -0.25 |

| Sequence | PBM E-score |
| --- | --- |
| CGTGGGTC | -0.152 |
| AGAGGGAC | -0.314 |
| ATGTTTCC | 0.0736 |
| AAACTCAA | -0.143 |
| CGAAGCGA | -0.0307 |
| CCCAATGC | -0.214 |
| CCCTGGTC | -0.293 |
| ACCTGAAT | -0.133 |
| GTAATTTA | 0.0378 |
| GCGCGGAC | 0.292 |
| CGTTTTAA | 0.046 |
| ACCAAAGG | -0.0701 |
| CTAACTCA | -0.0296 |
| ATCGAACA | -0.0252 |
| CTAGATTC | -0.168 |
| CGGATGGC | 0.1 |
| GCGTTCGA | -0.0361 |
| ACATTTTA | -0.0834 |
| ACTCCACA | -0.262 |
| ATTCGGGC | 0.155 |
| CTACTCAC | -0.129 |
| AACGGTTG | -0.122 |
